Article PMC4336329 (PLoS ONE, 2015)
The whole screen tested about 310,000 compounds, of which about 2,200 (0.71%) showed an effect of 50% or more. The effect is printed as a negative number. This is one part of the list.

Target: human ether-à-go-go-related gene (hERG) potassium channel (human, UniProt Q12809)
Test: primary screen, population patch clamp on CHO cells stably expressing hERG

Sequence of human ether-à-go-go-related gene (hERG) potassium channel (Q12809 whole entry, looked up): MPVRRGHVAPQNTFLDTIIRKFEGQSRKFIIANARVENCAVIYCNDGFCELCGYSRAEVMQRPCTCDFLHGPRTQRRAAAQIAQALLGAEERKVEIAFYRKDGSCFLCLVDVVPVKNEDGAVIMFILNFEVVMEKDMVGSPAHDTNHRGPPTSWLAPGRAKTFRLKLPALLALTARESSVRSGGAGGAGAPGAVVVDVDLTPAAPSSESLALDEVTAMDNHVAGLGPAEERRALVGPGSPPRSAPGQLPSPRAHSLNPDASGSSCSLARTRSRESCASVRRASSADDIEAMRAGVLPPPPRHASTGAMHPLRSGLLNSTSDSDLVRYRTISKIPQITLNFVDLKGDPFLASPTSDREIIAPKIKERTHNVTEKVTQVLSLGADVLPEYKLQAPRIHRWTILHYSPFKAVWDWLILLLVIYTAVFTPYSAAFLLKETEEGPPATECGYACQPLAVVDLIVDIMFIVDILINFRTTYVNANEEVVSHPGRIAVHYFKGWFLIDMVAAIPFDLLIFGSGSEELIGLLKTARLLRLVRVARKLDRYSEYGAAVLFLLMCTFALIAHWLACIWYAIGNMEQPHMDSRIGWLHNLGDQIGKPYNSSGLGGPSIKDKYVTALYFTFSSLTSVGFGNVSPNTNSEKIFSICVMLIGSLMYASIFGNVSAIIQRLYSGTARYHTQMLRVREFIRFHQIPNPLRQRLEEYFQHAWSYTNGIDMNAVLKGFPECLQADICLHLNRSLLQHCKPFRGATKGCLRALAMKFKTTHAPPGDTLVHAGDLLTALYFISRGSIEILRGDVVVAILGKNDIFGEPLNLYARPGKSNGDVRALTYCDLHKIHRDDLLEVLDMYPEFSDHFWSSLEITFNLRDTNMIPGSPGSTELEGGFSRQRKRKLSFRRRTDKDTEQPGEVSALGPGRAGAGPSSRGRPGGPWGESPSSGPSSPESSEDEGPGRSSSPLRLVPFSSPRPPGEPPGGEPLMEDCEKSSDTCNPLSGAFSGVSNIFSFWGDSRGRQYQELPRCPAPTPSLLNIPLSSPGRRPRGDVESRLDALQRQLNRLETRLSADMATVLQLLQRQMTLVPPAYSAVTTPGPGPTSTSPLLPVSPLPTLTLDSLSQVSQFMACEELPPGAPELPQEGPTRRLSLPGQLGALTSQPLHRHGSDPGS

| Structure (SMILES) | hERG current change (%, negative = inhibition) at 1uM [%] |
| --- | --- |
| Cl.O=C(Cn1c(NCCCl)nc2ccccc21)c1ccc(Br)cc1 | 9.51 |
| Br.C=CCN1C2=NCCCN2c2ccccc21 | 8.25 |
| COc1cc(NC(=O)c2ccc(Br)cc2)ccc1NC(=O)c1cc2ccccc2o1 | 10.9 |
| COc1cc(NC(=O)CSc2nnc3ccc(-c4cccnc4)nn23)cc(OC)c1 | -2.35 |
| Cl.NCC1(c2ccc3c(c2)OCCO3)CCCC1 | -5.82 |
| Cc1cccc(NC(=O)CSC2=NN3CCCC(=O)N=C3S2)c1C | 8.16 |
| Cc1cnc(C(=O)OCC(=O)N(Cc2ccccc2)C(C)C)cn1 | 14.4 |
| NC(=S)N/N=C/c1ccc([N+](=O)[O-])cc1 | 4.45 |
| Cc1nc2c(O)cccc2cc1CO | 11.9 |
| CC(C)OC(=O)NC(c1ccccc1)C(Cl)(Cl)Cl (stereo not drawn) | -7.04 |
| O=C(OCc1cn(-c2ccc(Cl)c(Cl)c2)nn1)c1ccccc1Cl | -8.64 |
| CN(C(=O)c1ccc(=O)n(Cc2ccc(Cl)cc2)c1)c1ccccc1 | 13.3 |
| O=C(NCCS(=O)(=O)NC1CCCC1)c1ccc(F)cc1 | 19 |
| CCc1nc(C)cn1S(=O)(=O)c1cc(Br)c(C)cc1OC | 4.97 |
| CC(=O)Oc1ccc2ccccc2c1C(NC(=O)C(C)C)c1cccc([N+](=O)[O-])c1 (stereo not drawn) | 6.94 |
| COc1ccc(CN2CCNC(=O)C2CC(=O)NCCSc2nccn2C)cc1OC (stereo not drawn) | 20.3 |
| Cc1cc(C)n(C(=O)CCCn2nc(C)c([N+](=O)[O-])c2C)n1 | 6.87 |
| CCC(=O)Nc1cc(ON=C(C)C)cc([N+](=O)[O-])c1 | 7.72 |
| CC(C)CCN1C(=O)CCC1(C)C(=O)NC1CCCCCCC1 (stereo not drawn) | 13.5 |

| Structure (SMILES) | hERG current change (%, negative = inhibition) at 1uM [%] |
| --- | --- |
| CCn1c2ccccc2c2cc(NC(=O)CSc3nnnn3-c3ccccc3)ccc21 | 9.35 |
| CCN(CC(=O)Nc1ccc(NC(C)=O)cc1)C(=O)COc1ccc2ccccc2c1 | -0.679 |
| O=C(O)CSc1ccnc2cc(Cl)ccc12 | 14.8 |
| COC(=O)C1=C(C)N(CC(C)C)C(=O)C1 | 2.85 |
| CCOc1ccc(C(=O)NCC(c2ccco2)N2CCOCC2)cc1 (stereo not drawn) | 9.87 |
| Cc1cc(-c2cc(C(=O)NC3CCCC3)on2)nc(NC2CCCC2)n1 | 6.28 |
| COc1ccc(-c2cc(=O)oc3cc(OC(C)C(=O)NCCCn4ccnc4)ccc23)cc1 (stereo not drawn) | -7.88 |
| O=C1CN(C(=O)CSc2nc(-c3ccc(Cl)cc3)cs2)c2ccccc2N1 | 8.81 |
| CN1C(=O)c2ccccc2N(C)C1c1cccs1 (stereo not drawn) | 9.75 |
| Cc1ccc(S(=O)(=O)N(C)C)cc1NC(=O)c1cncc(Br)c1 | 6.93 |
| CC(=O)Nc1ccc(NC(=O)CSc2nnc(-c3cccnc3)o2)cc1 | 9.05 |
| COc1ccc(-n2nc([N+](=O)[O-])c(=NCCc3ccccc3)n2O)cc1 | 2.77 |
| CC(NC(=O)CSc1nc2ccccc2n1CCC#N)c1ccc(F)cc1 (stereo not drawn) | 0.936 |
| CCN(CC)CCN1C(=O)C2C(C(=O)Nc3cc(C)cc(C)c3)C3C=CC2(O3)C1C(=O)NC1CCCCC1 (stereo not drawn) | 14.1 |
| COc1ccc2c(c1)c(=O)c(Br)c(C)n2Cc1ccccc1 | 19.2 |
| COc1ccc(-n2c(SCC(N)=O)nnc2-c2ccco2)cc1 | 15.6 |
| Cc1csc(SCC(=O)N2CCCC2)n1 | 7.19 |
| CCCCC[C@H](O)/C=C/[C@@H]1[C@@H](C/C=C\CCCC(=O)O)[C@H]2CO[C@@H]1C2 | 7.16 |
| CC(C)(C)OC(=O)N1CCC(c2c(C(=O)O)cnn2-c2ccccc2Cl)CC1 | -1.08 |

| Structure (SMILES) | hERG current change (%, negative = inhibition) at 1uM [%] |
| --- | --- |
| CCOC(=O)C1=C(C)Nc2ccccc2N=C1NC(=O)C(c1ccccc1)c1ccccc1 | 10.8 |
| COc1ccc(C(=O)C2CCCN(C(=O)/C=C/c3cnc[nH]3)C2)c(C)c1 (stereo not drawn) | 15.2 |
| CCOc1cc(CNCCc2c[nH]c3ccccc23)cc(Cl)c1OCC | 8.88 |
| Cc1[nH]c2ccccc2c1C1=CCNCC1 | 3.85 |
| Cc1ccc(S(=O)(=O)N(C)Cc2ccc(-c3nnc4n3CCC4)cc2)cc1 | 0.889 |
| COc1cc(OC)c2c(-c3ccccc3)cc(=O)oc2c1C(CCN1CCCC(C)C1)c1ccc2c(c1)OCO2 (stereo not drawn) | 10.4 |
| O=C(COc1ccccc1F)Nc1cc(S(=O)(=O)N2CCOCC2)ccc1N1CCOCC1 | 5.08 |
| CCC(CC)C(=O)c1c[nH]c(C(=O)NCC2CCCO2)c1 (stereo not drawn) | 6.11 |
| CC(C)c1cccc(OCCN2CCCC2)c1 | 11.7 |
| Cc1nc2nc(SCC(=O)NCCN3CCOCC3)nn2c(C)c1Cc1ccccc1 | 12.3 |
| COc1ccccc1C(=O)N1C(CC(=O)Nc2ccccc2C)C(=O)NC2CCCCC21 (stereo not drawn) | 13.1 |
| O=C(O)C(=O)O.O=C(c1ccccc1F)N1CCN(C2CCC(c3ccccc3)CC2)CC1 (stereo not drawn) | -0.839 |
| CC(=O)c1cc(C)ccc1OC(=O)CN1C(=O)c2ccccc2C1=O | 18.6 |
| COc1ccc(N2CCN(C(=O)COC(=O)c3ccc(CSC)o3)CC2)cc1 | -4.64 |
| CCCCNS(=O)(=O)c1ccc(NC(=O)C2c3ccccc3Oc3ccccc32)cc1 | 8.23 |
| Cl.Fc1ccccc1N1CCN(C(c2cccs2)c2nnnn2CCc2ccccc2)CC1 (stereo not drawn) | 10.2 |
| CNC(=O)COc1coc(CN2CCN(Cc3ccccc3)CC2)cc1=O | 8.11 |
| CC(C)(Oc1ccc(Cl)cc1)C(=O)NC1CCCCC1 | 5.45 |
| Cn1c(O)c(C(=Nc2ccc(F)cc2)c2ccccc2)c(=O)n(C)c1=O | 7.7 |
